Experimental findings from patent US12479841B2, “Anthelmintic compounds comprising azaindoles structure” (Intervet Inc., priority 2019, dated 2025) are described below.

Structures are written as SMILES.

One test concerns Ascaridia galli (intestinal roundworm of chicken), larval stage 3. The experiment in a line: In vitro assay: Ascaridia galli L3 larvae, minimum effective concentration. Particulars: read-out: MEC (minimum effective concentration) against Ascaridia galli L3, L3 larvae, 20 per well, microscopic examination, concentration at which at least one larva shows mortality, change in motility or development. From the text:
In Vitro Assay: Ascaridia galli and Oesophagostomum dentatum
Ascaridia galli (intestinal roundworm of chicken), larval stage 3 (“L3”); and Oesophagostomum dentatum (nodular worm of swine), larval stages 3 and 4 (respectively “L3” and “L4”) where suspended in a nutrient medium and distributed to 96 well plates with 20 larvae per well. The wells were spiked with DMSO solutions of the compounds with declining concentration.
As for `CN(C)c1c(C(=O)N[C@H]2CCOc3ccccc32)cnc2c1ccn2-c1cccc(C(F)(F)F)c1` [Compound 28], the minimal effective concentration is no more than 50 µM.

For `COc1cccc(-n2ccc3c(N(C)C)c(C(=O)N[C@H]4CCOc5ccccc54)cnc32)c1` [Compound 31], the minimal effective concentration is no more than 50 µM.

Regarding `CN(C)c1c(C(=O)NC2CC(C)(C)Oc3ccccc32)cnc2c1ccn2-c1cccc(Cl)c1Cl` (stereo not shown) [Compound 19], the minimal effective concentration was no more than 50 µM.

For `CCOc1c(C(=O)N[C@H]2CCOc3ccccc32)cnc2c1ccn2-c1cc(Cl)cc(Cl)c1` [Compound 43], the minimal effective concentration is no more than 50 µM.

Regarding `O=C(NCc1ccccc1)c1cnc2c(ccn2-c2cccc(Cl)c2Cl)c1N1CCOCC1` [Compound 12], the minimal effective concentration was no more than 50 µM.

For `CC1(C)CC(NC(=O)c2cnc3c(ccn3-c3cc(Cl)cc(Cl)c3)c2N2CCOCC2)c2ccccc2O1` (stereo not shown) [Compound 39], the minimal effective concentration was no more than 50 µM.

As to `CC1(C)CC(NC(=O)c2cnc3c(ccn3-c3cccc(Cl)c3Cl)c2N2CCOCC2)c2ccccc2O1` (stereo not shown) [Compound 40], the minimal effective concentration was no more than 50 µM.

Regarding `CN(C)c1c(C(=O)NC2CC(C)(C)Oc3ccccc32)cnc2c1ccn2-c1cc(Cl)cc(Cl)c1` (stereo not shown) [Compound 38], the minimal effective concentration is no more than 50 µM.

Consider `CN(C)c1cccc(-n2ccc3c(N(C)C)c(C(=O)N[C@H]4CCOc5ccccc54)cnc32)c1` [Compound 30], for which the minimal effective concentration was no more than 50 µM.

For `CN(C)c1c(C(=O)N[C@H]2CCCc3ccccc32)cnc2c1ccn2-c1cc(Cl)cc(Cl)c1` [Compound 34], the minimal effective concentration is no more than 50 µM.

Take `CN(C)c1c(C(=O)NCc2ccccc2)cnc2c1ccn2-c1cc(Cl)cc(Cl)c1` [Compound 9]: the minimal effective concentration was no more than 50 µM.

In another test the test system is Exsheathed L3 larvae of Haemonchus contortus. Put plainly: In vitro assay: Haemonchus contortus L3 larval motility. Particulars: 168 h, read-out: ED50 value against Haemonchus contortus, exsheathed L3, 300 larvae/well, 7 days incubation, motility reduced by 50% with respect to the positive control (ivermectin). The method, then: In Vitro Assay: Haemonchus contortus
Solutions of compounds with declining concentrations in DMSO were prepared, diluted with nutrient medium and distributed to 96 well microtiterplates. Exsheathed L3 larvae of Haemonchus contortus were incubated for 20 min at 37° C. in a water bath, separated by centrifugation and added to the wells with 300 Larvae/well. After incubation for 7 days motility was assessed by automated microscopy. Ivermectin was used as positive control, DMSO as negative control and ED50 values were calculated which represent the concentration for an individual compound that reduces motility by 50% with respect to the positive control.
Take `O=C(NCc1ccccc1)c1cnc2c(ccn2-c2cccc(Cl)c2Cl)c1N1CCOCC1` [Compound 12]: the EC50 was less than 50 µM.

In the case of `Cc1cccc(-n2ccc3c(N(C)C)c(C(=O)N[C@H]4CCOc5ccccc54)cnc32)c1C` [Compound 29], the EC50 is less than 50 µM.
